The text below walks through data of the supplement of paper PMC4967469.

Test in all cases: Viability of human cancer cell lines after 72 h of drug (GDSC screen)
Compound in experiment [1]: CC(=O)Nc1nc(C)c(-c2ccc(Cl)c(S(=O)(=O)NCCO)c2)s1 [PIK-93]
The note with it: top dose 20 µM. How it is done:
(§1)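 Human cancer cell lines in 384-well plates, medium with 10% serum, drug for 72 h over a 256-fold dose range (nine 2-fold or five 4-fold steps up to the top dose). Adherent lines were fixed and stained with the nucleic acid dye Syto60, suspension lines read with resazurin; signal relative to control wells, capped at 0 and 100%. One two-parameter sigmoid per drug and line, fitted in a mixed model over all curves with the slope shared within a line.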

Compound in experiment [2]: CC1(C)CCC(c2ccc(Cl)cc2)=C(CN2CCN(c3ccc(C(=O)NS(=O)(=O)c4ccc(N[C@H](CCN5CCOCC5)CSc5ccccc5)c(S(=O)(=O)C(F)(F)F)c4)cc3)CC2)C1 [ABT-263]
The note with it: top dose 2 µM; top dose inferred. How it is done:
as §1

Compound in experiment [3]: COc1cc2ncn(-c3cc(OCc4ccccc4C(F)(F)F)c(C(N)=O)s3)c2cc1OC [GW843682X]
Particulars: top dose 0.256 µM. How it is done: as §1

Compound in experiment [4]: O=C(/C=C/c1ccccc1)NC(NC(=S)Nc1cccc2cccnc12)C(Cl)(Cl)Cl [Salubrinal]
Particulars: top dose 16 µM; top dose inferred. How it is done:
as §1

Compound in experiment [5]: Cn1cc(/C=C2\C(=O)Nc3cccnc32)c2ccccc21 [GW 441756]
Particulars: top dose 2 µM; top dose inferred. The protocol:
as §1

Compound in experiment [6]: COc1cc(/C=C/C(=O)N2CCC=CC2=O)cc(OC)c1OC [piperlongumine]
Particulars: top dose 10 µM. The protocol: as §1

IC50 is the fitted dose that halves viability relative to control wells, and lower means more sensitive; a fit beyond the top or the lowest dose is shown as a bound at that dose. AUC is the area under the same curve over the 256-fold range up to the top dose, as a fraction; values near 1 show little effect. For part of these data: Where the top dose is marked as inferred, it was derived from the fitted curves, not read from the paper.

A word on the IC50: it is the concentration that inhibits the measured activity by half. Turning to KNS-81-FD (glioma, adherent), the AUC in experiment [1] amounted to 0.806; in experiment [2] it was 0.721; in experiment [3], 0.894; in experiment [4], 0.888; in experiment [5] it was 0.961; in experiment [6] it was 0.731. The half-maximal inhibitory concentration (IC50) in experiment [1] is 14.9 µM; in experiment [2], 0.673 µM; in experiment [3], greater than 0.256 µM; in experiment [4], greater than 16 µM; in experiment [5] it was greater than 2 µM; in experiment [6], 3.67 µM.
For “KARPAS-299 (anaplastic large cell lymphoma, suspension)”, the AUC in experiment [1] was found to be 0.911; in experiment [2], 0.985; in experiment [3], 0.779; in experiment [4] it was 0.967; in experiment [5], 0.966; in experiment [6] it was 0.804. The half-inhibitory concentration (IC50) is greater than 20 µM in experiment [1]; greater than 2 µM in experiment [2]; 0.087 µM in experiment [3]; greater than 16 µM in experiment [4]; greater than 2 µM in experiment [5]; 4.05 µM in experiment [6].
For the cell line SUP-HD1 (Hodgkin lymphoma, suspension), the AUC in experiment [1] amounted to 0.589; in experiment [2] it was 0.205; in experiment [3] it was 0.824; in experiment [4], 0.82; in experiment [5], 0.987; in experiment [6], 0.777. Also, the 50% inhibitory concentration (IC50) was 2.17 µM in experiment [1]; 0.0177 µM in experiment [2]; 0.143 µM in experiment [3]; 8.65 µM in experiment [4]; greater than 2 µM in experiment [5]; 3.83 µM in experiment [6].
Take “OCI-AML2 (acute myeloid leukaemia, suspension)”: the AUC in experiment [1] turned out to be 0.251; in experiment [2], 0.3; in experiment [3], 0.589; in experiment [4], 0.926; in experiment [5] it was 0.995; in experiment [6], 0.802. For the same cell line, the IC50 in experiment [1] is 0.305 µM; in experiment [2], 0.0406 µM; in experiment [3], 0.0264 µM; in experiment [4], 14.1 µM; in experiment [5] it was greater than 2 µM; in experiment [6], 3.54 µM.
As to L-363 (myeloma, suspension), the AUC in experiment [1] was found to be 0.703; in experiment [2] it was 0.975; in experiment [3] it was 0.627; in experiment [4], 0.867; in experiment [5] it was 0.981; in experiment [6], 0.698. In addition, the IC50 in experiment [1] was 4.24 µM; in experiment [2], greater than 2 µM; in experiment [3], 0.0341 µM; in experiment [4], 11.3 µM; in experiment [5], greater than 2 µM; in experiment [6] it was 2.06 µM.
As to “RPMI-8866 (chronic myeloid leukaemia, suspension)”, the AUC was 0.394 in experiment [1]; 0.461 in experiment [2]; 0.727 in experiment [3]; 0.968 in experiment [4]; 0.976 in experiment [5]; 0.668 in experiment [6]. Besides, the IC50 is 0.654 µM in experiment [1]; 0.0986 µM in experiment [2]; 0.0666 µM in experiment [3]; greater than 16 µM in experiment [4]; greater than 2 µM in experiment [5]; 1.77 µM in experiment [6].
Take VCaP (prostate, adherent): the AUC is 0.711 in experiment [1]; 0.986 in experiment [2]; 0.707 in experiment [3]; 0.901 in experiment [4]; 0.987 in experiment [5]; 0.786 in experiment [6]. The half-maximal inhibitory concentration (IC50) in experiment [1] was 5.05 µM; in experiment [2], greater than 2 µM; in experiment [3], 0.0628 µM; in experiment [4] it was greater than 16 µM; in experiment [5], greater than 2 µM; in experiment [6], 4.5 µM.
As to “KE-37 (lymphoblastic leukaemia, suspension)”, the AUC came to 0.122 in experiment [1]; 0.302 in experiment [2]; 0.311 in experiment [3]; 0.915 in experiment [4]; 0.994 in experiment [5]; 0.849 in experiment [6]. Besides, the IC50 in experiment [1] was 0.127 µM; in experiment [2], 0.0406 µM; in experiment [3] it was 0.00548 µM; in experiment [4] it was 13.6 µM; in experiment [5], greater than 2 µM; in experiment [6], 4.98 µM.
Regarding MFM-223 (breast, adherent), the AUC in experiment [1] turned out to be 0.892; in experiment [2], 0.911; in experiment [3] it was 0.974; in experiment [4], 0.989; in experiment [5] it was 0.89; in experiment [6], 0.69. Also, the IC50 in experiment [1] is greater than 20 µM; in experiment [2], greater than 2 µM; in experiment [3] it was greater than 0.256 µM; in experiment [4] it was greater than 16 µM; in experiment [5], greater than 2 µM; in experiment [6] it was 2.12 µM.
